From PubChem BioAssay AID488969 (Vanderbilt High Throughput Screening Facility, 2010)
In all, about 110,000 compounds were measured (“z-score”: median about -0.1, highest 2% from about 2 on). The list shows a part of the results. The source made the active and inactive calls.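 Rule for the calls: active = z-score in the third read window above 3 or below -3; inactive = the rest.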

The molecules below were run against Metabotropic glutamate receptor 8 (Rattus norvegicus) (UniProt P70579) (assay: mGluR8 Gi/Go-coupled signaling modulation – cell-based, rat, thallium flux, HTS, primary screen (AID 488969)). Conditions: HEK293 rat mGluR8, GIRK (G protein-gated inwardly rectifying potassium channel) thallium flux, FluoZin2; at 10 µM; stronger effect = higher value; submaximal glutamate (EC20) added with thallium.
UniProt P70579, sequence (P70579 whole entry, looked up): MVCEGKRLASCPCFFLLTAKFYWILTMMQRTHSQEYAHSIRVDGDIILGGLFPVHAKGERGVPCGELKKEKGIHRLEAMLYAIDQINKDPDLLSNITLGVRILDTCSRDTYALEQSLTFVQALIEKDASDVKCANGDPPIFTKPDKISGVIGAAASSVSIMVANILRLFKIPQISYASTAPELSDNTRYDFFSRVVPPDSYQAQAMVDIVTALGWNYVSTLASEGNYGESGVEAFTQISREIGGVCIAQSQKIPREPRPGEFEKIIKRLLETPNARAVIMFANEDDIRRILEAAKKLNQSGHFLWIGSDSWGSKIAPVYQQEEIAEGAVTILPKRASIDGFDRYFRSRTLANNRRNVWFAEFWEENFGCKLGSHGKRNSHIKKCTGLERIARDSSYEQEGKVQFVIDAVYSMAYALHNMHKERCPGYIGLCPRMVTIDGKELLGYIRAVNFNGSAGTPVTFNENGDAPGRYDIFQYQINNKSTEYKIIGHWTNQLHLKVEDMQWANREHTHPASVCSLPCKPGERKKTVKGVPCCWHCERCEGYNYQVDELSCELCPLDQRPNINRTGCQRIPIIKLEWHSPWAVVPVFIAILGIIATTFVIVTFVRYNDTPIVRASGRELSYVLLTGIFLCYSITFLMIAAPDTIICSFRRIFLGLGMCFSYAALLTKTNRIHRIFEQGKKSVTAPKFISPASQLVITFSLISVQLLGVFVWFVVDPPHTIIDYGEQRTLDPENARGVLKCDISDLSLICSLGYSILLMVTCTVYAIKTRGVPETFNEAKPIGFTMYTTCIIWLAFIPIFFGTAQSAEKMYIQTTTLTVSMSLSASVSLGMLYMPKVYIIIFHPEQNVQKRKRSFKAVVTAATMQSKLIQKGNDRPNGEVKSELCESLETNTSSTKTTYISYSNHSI
`CCOC(=O)c1c(NC(=S)Nc2ccc(Cl)cc2)sc(C)c1C` gave a z-score of -0.0912. In the case of `CC(C)=N/N=C1/NC(=O)C(CC(=O)Nc2cc(Cl)ccc2C)S1` (stereo not drawn), the z-score is reported as -0.221. For `O=C(CN1c2ccccc2Sc2ccccc21)NNC(=S)Nc1ccc(Cl)cc1Cl`, the z-score was -0.138. `CCN(CC)CCn1c2ccc(F)cc2c2nc(C)sc21` was tested, and the z-score was 0.189. Work on `O=C(N/C(=C/c1cccs1)c1nc2ccccc2[nH]1)c1ccccc1` yielded a z-score of -0.0894. In the case of `CC12CCC(C(=O)Nc3cccc4ccccc34)(C1Br)C2(C)C` (stereo not drawn), the z-score is reported as -0.149. `Cc1cc(NC(=O)c2cccc(C(=O)Nc3cc(C)on3)n2)no1` was tested, and the z-score was -0.219. `COC(=O)/C(C#N)=C1/C=Cc2ccccc2N1C` was tested, and the z-score was 0.0446. `O=C(NCc1cccs1)Nc1ccc(Cl)cc1` was tested, and the z-score was 0.449. For `Cc1cc(/C=c2/sc3nc4ccccc4n3c2=O)c(C)n1-c1ccccn1`, the z-score was active: 6.08. `Cc1nnc(NC(=O)CSc2ncnc3scc(-c4ccccc4)c23)s1` gave a z-score of 0.176. `CC(C)c1ccc2oc(-c3ccc(NC(=O)c4ncn[nH]4)cc3)nc2c1` was tested, and the z-score was 0.303. With `COc1ccc(CCNC(=O)CCn2cccc2)cc1OC` the z-score was -0.462. For `CCCCC1S/C(=N/N=C/c2ccc(OC)cc2)N(Cc2ccc(OC)cc2)C1=O` (stereo not drawn), the z-score was -0.524. `Cc1ccc(-n2c(Cc3cccn3C)nnc2SCC(=O)Nc2ccc3c(c2)OCO3)cc1` was tested, and the z-score was 0.172. `CC(C)CCn1cnc2c(NCc3ccccc3)ncnc21` was tested, and the z-score was 2.07. For `Cc1ccc(/C=c2\sc3n(c2=O)CN(c2cccc(Br)c2)CN=3)o1`, the z-score was 0.126. `CCOC(=O)C1CCN(C(=O)Nc2ccc3nccnc3c2)CC1` was tested, and the z-score was -0.389. `O=c1c2c3c(sc2nc2sc(C4CC4)nn12)CCCC3` showed a z-score of -0.164. For `Cn1ncc(N=Cc2ccccc2O)c1C(=O)Nc1ccccc1`, the z-score was -0.273. `Cc1ccc(C(=O)O)cc1N=Cc1cc(Br)cc(Br)c1O` showed a z-score of -0.485. In the case of `O=C(Nc1nc(-c2ccccc2)c(C(=O)c2ccccc2)s1)c1ccc(S(=O)(=O)N2CCCC2)cc1`, the z-score is reported as -0.0475. `Cc1cc(NS(=O)(=O)c2ccc(NC(=O)C(C)Oc3ccc4c(C)cc(=O)oc4c3)cc2)no1` (stereo not drawn) gave a z-score of -0.145. Molecule `Cc1cc(Oc2ccccc2)nc(SCC(N)=O)n1` has a z-score of 0.736. In the case of `Cc1oc2c(c1C(=O)NCc1cc(C(=O)O)co1)CCCC2`, the z-score is reported as -0.0342. For `O=C(NCCN1CCOCC1)c1cc(Sc2cccc(Cl)c2)nc2ccccc12`, the z-score was -0.923. `Cc1cccc2c(=O)c(C(=O)N3CCCCCC3)c[nH]c12` showed a z-score of -0.0936. Work on `CS(=O)(=O)C1=NSC2=NC(=O)/C(=C\c3ccc(-c4ccccc4)o3)C(=N)N21` yielded a z-score of -0.142. `COc1ccc(S(=O)(=O)N(C)C)cc1NCC(=O)Nc1ccc(F)cc1F` was tested, and the z-score was -0.182. For `COc1ccc(N=C(C)C2=C(O)c3ccccc3C2=O)cc1`, the z-score was -1.01. In the case of `Cc1c(C)n(C(=O)CN2CCN(c3ccccn3)CC2)c2ccccc12`, the z-score is reported as -0.164. For `Cc1ccc(OCCCn2cc(C#N)c3ccccc32)cc1`, the z-score was 0.717. Work on `O=C(CCN1C(=O)c2ccccc2C1=O)NCCC1=CCCCC1` yielded a z-score of 0.108. Molecule `COc1ccc(Oc2nc(C(F)(F)F)nc3ccccc23)cc1` has a z-score of -0.576. `CCN(CC1COc2ccccc2O1)S(=O)(=O)c1ccc(C)cc1` (stereo not drawn) was tested, and the z-score was 0.877. With `CN(C)CC/C=C1/c2ccccc2Sc2c(O)cc(Cl)cc21` the z-score was 1.62. `C/C(=N/NC(=O)c1cccc(C)c1)c1c(O)cc(C)oc1=O` was tested, and the z-score was 0.213. Work on `NC1=NC(=O)/C(=C/c2cn(Cc3ccccc3)c3ccccc23)S1` yielded a z-score of 0.0563. In the case of `CCOc1c(C)cc(-c2ncccc2O)cc1C`, the z-score is reported as 0.108. Work on `CCn1c(COc2cccc3ccccc23)nnc1SCC(=O)OC1CCCCC1` yielded a z-score of 0.216. Molecule `Cc1cc2c(cc1C)C(c1cccc([N+](=O)[O-])c1)CC(=O)N2` (stereo not drawn) has a z-score of 0.14. For `Cc1ccc(NC(=O)CN2C(=O)/C(=C\c3cccs3)SC2=S)cc1`, the z-score was -0.912. In the case of `Cc1nc2ccccc2nc1N1CCOCC1`, the z-score is reported as -0.094. With `O=C(Nc1ncccn1)c1cc([N+](=O)[O-])cc([N+](=O)[O-])c1` the z-score was -0.131. Work on `CCS(=O)(=O)c1nn2c(N)c(/C=C3/C=CC(=O)C(OC)=C3)c(=O)nc2s1` yielded a z-score of -0.412. `CCCCC(=O)NNC(=S)NC(=O)CCC` gave a z-score of -0.0201. With `S=c1[nH]nc(-c2ccco2)n1/N=C/c1cccc(Cl)c1Cl` the z-score was active: 5.73. For `Cc1nnc(-n2ncc(C#N)c2N)c2nn(-c3cccc(Cl)c3)c(C)c12`, the z-score was 0.0208. `O=S(=O)(NCc1ccccn1)c1ccccc1` gave a z-score of -0.362. Molecule `O=C(NNC(=O)C1CCN(S(=O)(=O)c2ccc(Cl)cc2)CC1)c1ccc(Cl)cc1` has a z-score of -0.165. `Cc1ccc(C2CC(c3cccs3)=NN2S(=O)(=O)c2ccc(C)cc2)cc1` (stereo not drawn) was tested, and the z-score was -0.276. For `CCOC(=O)C1CCN(C(=O)CSc2ccccc2)CC1`, the z-score was -0.375. With `O=C(NCc1ccco1)Nc1ccc2snnc2c1` the z-score was -0.0412. `OC(CN=c1sc2ccccc2n1CC(O)COc1ccccc1)COc1ccccc1` (stereo not drawn) gave a z-score of 0.0732. `Cc1ccc(S(=O)(=O)N(C)CC(=O)NC2CC(C)(C)NC(C)(C)C2)cc1` showed a z-score of 0.0551. `CC(=O)Nc1ccc(-c2nn[nH]n2)cc1Cl` was tested, and the z-score was 1.27. Molecule `Cc1ccc(C2C(=O)N(C3CCC(C)CC3)CC(=O)N2C2CC2)cc1` (stereo not drawn) has a z-score of -0.153. Work on `CC(CN1CCCCC1)OC(=O)c1cc2ccccc2o1` (stereo not drawn) yielded a z-score of -0.467. `CCCCN1C(=O)/C(=C(/C#N)C(N)=O)c2ccccc21` gave a z-score of -0.233. `Cn1cc(/C=N/n2cnc3scc(-c4ccc(Cl)cc4)c3c2=O)c2ccccc21` was tested, and the z-score was 0.699. `COc1ccc(S(=O)(=O)N2CCN(C(=O)c3cnc(C)cn3)CC2)cc1` showed a z-score of 0.314. With `CCOC(=O)c1ccc(NC(=O)NS(=O)(=O)c2ccc(C)cc2)cc1` the z-score was -0.301. In the case of `Cc1noc(C)c1CSc1nc2sc3c(c2c(=O)n1C)CCCC3`, the z-score is reported as 0.514. With `CC(C)(C)c1cc(C(=O)NCc2cccnc2)ccn1` the z-score was -0.205. Molecule `CCn1c(=O)c2cc(S(=O)(=O)NC3CCCCC3)ccc2n(CC)c1=O` has a z-score of -1.16. For `COc1ccc(C(C)=O)cc1COC(=O)Cn1cnc2ccccc2c1=O`, the z-score was -0.141. Molecule `COc1cc(/C=N/NC(=O)C2C3CCCCC32C)cc(Br)c1O` (stereo not drawn) has a z-score of -0.151. Work on `O=C(Cn1nnc(-c2ccc(N3CCOCC3)cc2)n1)OC1CCCCC1` yielded a z-score of -0.26. For `CSc1nc2cc(Cl)ccc2s1`, the z-score was -0.233. `CC(=O)Nc1ccccc1-c1nc2ccccc2nc1OCC(=O)c1ccc(Cl)cc1` showed a z-score of -0.591. With `CN(C1CCCC1)C1CCN(C(=O)CNC(=O)/C=C/c2ccc(F)cc2)CC1` the z-score was -0.476. Molecule `COc1ccc(OC(C)C(=O)Nc2cccc([N+](=O)[O-])c2)cc1` (stereo not drawn) has a z-score of -0.443. In the case of `CCOc1ccccc1-n1nnnc1SCC(=O)Nc1cc(C)on1`, the z-score is reported as 0.428. In the case of `Cc1cccc(-n2c(-c3cccc([N+](=O)[O-])c3)nc3nc4ccccc4nc32)c1`, the z-score is reported as -0.0692. For `COc1ccc(CCNC(=O)CN2C(=O)c3ccccc3C2=O)cc1`, the z-score was -0.172. For `CC1=CC(=C2C(=O)c3ccccc3C2=O)C=C(C)N1C`, the z-score was 0.279. In the case of `CCn1c(SCC(N)=O)nnc1-c1cc2c(C)nn(-c3ccccc3)c2s1`, the z-score is reported as 0.0169. With `COc1cc(OC)cc(-c2n[nH]c(=S)n2-c2cc(OC)ccc2OC)c1` the z-score was -0.131. With `N=c1oc2ccccc2cc1C(=O)N/N=C/c1ccccc1` the z-score was -1.19. `COc1ccc(C(=O)Nc2cccc(C(=O)N3CCN(C)CC3)c2)cc1` showed a z-score of -0.312. `O=C(c1cccc(Cl)c1)N1CCN(c2ccccn2)CC1` was tested, and the z-score was 0.0357. `CCNc1nc(NC(C)C)nc(N(n2cnnc2)S(=O)(=O)c2ccc(C)cc2)n1` gave a z-score of -0.336. Molecule `COCCNC(=O)CC(c1ccccc1)c1ccccc1` has a z-score of -0.175. Work on `O=C(COC(=O)c1cccnc1)c1ccc(Cl)c(Cl)c1` yielded a z-score of 0.111. `CCC(Oc1ccccc1)C(=O)N1CCN(C(=O)C(CC)Oc2ccccc2)CC1` (stereo not drawn) showed a z-score of -0.159. `CCc1nnc(NC(=O)c2ccc(COc3ccccc3)o2)s1` was tested, and the z-score was -0.345. With `CCNC(=S)Nc1ccc(Cl)cc1Cl` the z-score was 0.108. `COc1ccc(/C=N/n2cnnc2SCc2ccc(OC)cc2)cc1` was tested, and the z-score was -0.739. `COc1ccc(CNC(=S)NCc2ccc(OC(C)C)cc2)cc1` was tested, and the z-score was 0.57. `CCOc1cc(C(=O)Nc2ccccc2F)cc(Br)c1OCC` showed a z-score of 0.353. `CN(C)CCNC(=O)C12CC3(C)CC(C)(CC(C)(C3)C1)C2` gave a z-score of 0.238. Molecule `Cc1ccc(Nc2nc(N)nc(CN3CCN(Cc4ccc5c(c4)OCO5)CC3)n2)cc1Cl` has a z-score of -0.81. In the case of `Cc1oc2nc(SCC(=O)NC3CCCCC3)nc(N)c2c1C`, the z-score is reported as -0.638. `CC1(C)OC(C(N)=O)C(C(N)=O)O1` (stereo not drawn) showed a z-score of 0.57. With `Cc1nnc(SCC(=O)Nc2ccc(Cl)cn2)s1` the z-score was -1.36. `O=C(Cc1ccc(Cl)cc1)NNC(=O)Nc1cccc2ccccc12` was tested, and the z-score was -0.207. For `Cc1onc(-c2c(Cl)cccc2Cl)c1C(=O)c1c[nH]c(C(=O)NCCCN2CCOCC2)c1`, the z-score was -0.498. Molecule `CC(C)C(NC(=O)/C=C/c1cccc([N+](=O)[O-])c1)C(C)C` has a z-score of 0.0785. For `O=C(CSc1nnc(-c2cc3ccccc3cc2O)n1Cc1ccco1)N1CCc2ccccc2C1`, the z-score was -0.103. `O=C(O)CCSc1nnc(-c2ccc3c(c2)OCO3)o1` gave a z-score of -1.25. Molecule `COc1ccc(OC)c(NC(=S)NCCSc2ccc(C)cc2)c1` has a z-score of 0.00717. In the case of `CCCC(=O)OC1CC(C)N(C(=O)c2ccccc2)c2ccc(C)cc21` (stereo not drawn), the z-score is reported as -0.333. With `Cc1ccc(CCP(=O)(O)CN2CCOCC2)cn1` the z-score was 0.0859. For `COc1cc(OC)cc(C(=O)Nc2ncc3c(n2)CC(C)(C)CC3=O)c1`, the z-score was -0.87. For `Cc1ccc(C(=O)N/N=C2/NC(=O)CC(C(=O)Nc3ccccc3)S2)cc1` (stereo not drawn), the z-score was 0.0145. In the case of `COc1ccc(N(C(=O)COc2ccc(F)cc2)S(=O)(=O)c2ccc(C)cc2)cc1`, the z-score is reported as -0.382. `N#CC1=C2SCC(O)(c3ccccc3)N2C(=O)CC1c1ccccc1F` (stereo not drawn) gave a z-score of -0.0286. In the case of `NC1=NC2(CCCCC2)n2c(nc3ccccc32)N1`, the z-score is reported as 1.41. `Cc1ccc(S(=O)(=O)CC(N)=O)cc1` gave a z-score of -0.286. `Cc1nn(Cc2c(Cl)cccc2Cl)c(C)c1NC(=O)CCCn1nc([N+](=O)[O-])c(Cl)c1C` gave a z-score of -0.326. Molecule `Cc1ccc(C(c2sc3nc(C)nn3c2O)N2CCN(c3ccccc3)CC2)cc1` (stereo not drawn) has a z-score of -0.127. With `Cc1cccc(OCCCCc2c(C)n[nH]c2C)c1` the z-score was 0.289. `O=C(CNS(=O)(=O)c1ccc2ccccc2c1)OCc1nnc(-c2ccccc2)o1` was tested, and the z-score was -0.683.
